The whole screen tested about 310,000 compounds, of which about 14,000 (4.5%) showed an effect of 50% or more. The effect is printed as a negative number. Some of the results follow.
target: human ether-à-go-go-related gene (hERG) potassium channel (human, UniProt Q12809); assay: primary screen, population patch clamp on CHO cells stably expressing hERG
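Further: peak tail current of the secondary pulse compared with the same well before compound.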

Chain of human ether-à-go-go-related gene (hERG) potassium channel (Q12809 whole entry, looked up): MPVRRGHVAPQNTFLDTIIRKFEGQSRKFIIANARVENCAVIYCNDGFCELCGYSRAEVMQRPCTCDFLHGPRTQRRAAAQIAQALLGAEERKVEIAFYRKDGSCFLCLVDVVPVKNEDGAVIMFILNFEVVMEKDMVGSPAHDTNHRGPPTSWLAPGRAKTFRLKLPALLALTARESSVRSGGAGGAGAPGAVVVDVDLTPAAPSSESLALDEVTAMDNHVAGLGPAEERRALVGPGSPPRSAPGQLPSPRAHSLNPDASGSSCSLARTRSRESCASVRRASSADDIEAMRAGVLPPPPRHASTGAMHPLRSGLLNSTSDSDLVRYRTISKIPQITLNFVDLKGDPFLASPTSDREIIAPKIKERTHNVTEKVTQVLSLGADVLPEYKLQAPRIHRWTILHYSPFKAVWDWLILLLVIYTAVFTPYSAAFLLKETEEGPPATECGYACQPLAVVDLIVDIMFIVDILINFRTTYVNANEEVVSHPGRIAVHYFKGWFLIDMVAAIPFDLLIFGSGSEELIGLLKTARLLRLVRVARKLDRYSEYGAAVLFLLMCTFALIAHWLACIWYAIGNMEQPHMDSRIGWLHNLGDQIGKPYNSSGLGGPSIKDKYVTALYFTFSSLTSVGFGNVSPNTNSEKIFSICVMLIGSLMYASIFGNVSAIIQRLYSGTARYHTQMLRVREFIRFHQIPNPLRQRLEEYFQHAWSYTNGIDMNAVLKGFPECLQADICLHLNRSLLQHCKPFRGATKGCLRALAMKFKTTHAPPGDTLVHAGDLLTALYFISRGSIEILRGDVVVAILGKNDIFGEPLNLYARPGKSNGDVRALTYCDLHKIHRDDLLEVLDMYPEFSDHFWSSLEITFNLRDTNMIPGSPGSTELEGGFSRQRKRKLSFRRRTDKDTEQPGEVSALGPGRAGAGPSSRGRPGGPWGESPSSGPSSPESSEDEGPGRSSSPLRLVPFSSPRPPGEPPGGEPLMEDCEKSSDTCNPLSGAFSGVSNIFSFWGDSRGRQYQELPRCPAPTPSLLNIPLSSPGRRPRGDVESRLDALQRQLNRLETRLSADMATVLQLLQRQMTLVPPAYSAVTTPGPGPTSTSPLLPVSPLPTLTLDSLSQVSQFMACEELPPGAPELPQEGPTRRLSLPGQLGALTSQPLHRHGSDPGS

SMILES	hERG current change (%, negative = inhibition) at 10uM [%]
N/C(=N\NS(=O)(=O)c1cc(C(F)(F)F)cc(C(F)(F)F)c1)c1ccccn1	-17.5
CC(/C=C/c1ccco1)=N/NC(=O)Cc1cccs1	-8.68
COCCNC(=O)Cn1c(=O)n(CCCC(=O)NCc2ccc3c(c2)OCO3)c(=O)c2sccc21	-0.00342
Cc1ccc(CSCC(=O)N/N=C/c2sccc2C)cc1	11.5
CC(C1CC1)N(C(=O)c1ccccc1[N+](=O)[O-])c1ccccc1 (stereo not drawn)	1.39
COc1cc(-c2nc3ccc4ccccc4c3c3c2CCC3)cc(OC)c1OC	3.31
CC1(C)N=C(N)NC(Nc2ccccc2)=N1	2.96
C/C(=N\NC(=O)c1nn(C)c(C)c1Br)c1cccc(NC(=O)c2ccoc2C)c1	-23.2
CCCOc1ccc(N2C(=O)CC(N3CCN(c4ccc([N+](=O)[O-])cc4)CC3)C2=O)cc1 (stereo not drawn)	-73.8
CC(C)CN(CC(C)C)S(=O)(=O)N1CCC(C(=O)NCc2cccnc2)CC1	10.1
Cc1ccc(Nc2nc(CSc3nnc(-c4ccc(F)cc4)n3C)cs2)cc1	-46.2
CCOc1ccc(N(CC(=O)NCC(C)C)S(C)(=O)=O)cc1	9.92
O=C(Nc1ccc(NC(=O)c2ccncc2)cc1)c1ccncc1	24.2
CCOC(=O)C1CCN(Cc2nc3ccc(Cl)cc3n2CCO)CC1	-34.6
COC(=O)c1sc(Nc2ccccc2)nc1C	6.13
COc1ccc(/C(C)=N/NC(=O)c2cc(C)[nH]n2)c(OC)c1	1.33
CN(C)S(=O)(=O)c1cc(NC(=O)CSc2nn(-c3ccc(Cl)cc3)c(=S)s2)ccc1Cl	-0.516
N/C(=N\OS(=O)(=O)c1ccc2ccccc2c1)c1ccncc1	-35.6
Cc1cccc2c(N=Nc3ccccc3)c(O)[nH]c12	14.4
COc1ccc(C(=O)COC(=O)c2cccnc2Cl)c(OC)c1	0.265
C/C(=N\Nc1ccc([N+](=O)[O-])cc1)c1ccc(-n2nncc2C)cc1	2.25

SMILES	hERG current change (%, negative = inhibition) at 10uM [%]
CC(C(=O)Nc1ccc(S(=O)(=O)N2CCCCC2)cc1)N1CCN(c2ccccn2)CC1 (stereo not drawn)	11.5
N/C(=N\OC(=O)CCCc1ccccc1)c1ccc([N+](=O)[O-])cc1	-5.5
CC(C)NC(=S)N/N=C1\CCCCc2ccccc21	-21.1
CCOc1cc(/C=C2\N=C3CCCCCN3C2=O)ccc1O	4.6
C=CC1=C2C=C(C3CC3)N(CCCN(CC)CC)C=C2C(=O)C(C)(OC(=O)c2ccco2)C1=O (stereo not drawn)	0.664
CCn1cc(C(=O)OCC(=O)Nc2cc(S(=O)(=O)N(C)C)ccc2C)c(=O)c2ccc(C)nc21	-20.7
O=S(=O)(N1CCCCC1)n1c(Cc2ccccc2)nc2ccccc21	-3.18
Cc1cc(C(F)(F)F)nn1Cc1ccc(C(=O)NCc2ccco2)o1	5.14
CCOc1cc(CNCc2ccccn2)ccc1OCC(=O)NC1CCCCC1.Cl	-5.62
COc1ccc(OC)c(-c2cc(C3CCN(C(=O)OC(C)(C)C)CC3)[nH]n2)c1	0.624
Cc1cccc(COc2ccc(/C(O)=C3\C(=O)C(=O)N(CCN(C)C)C3c3ccncc3)cc2)c1 (stereo not drawn)	20.2
COc1ccc(NC(=O)Cc2nnc(SCC(=O)NC3CCCC3)n2C)cc1	15.3
O=C(CN1C(=O)c2ccccc2C1=O)N1CCN(c2ccccn2)CC1	11.4
CCOC(=O)c1ccc(NC(=O)c2ccc[n+]([O-])c2)cc1	4.73
CC/C(=N/OC(=O)c1cccc(C)c1)C(=O)c1cccs1	-5.52
COc1ccccc1-c1c(-c2ccc(O)cc2O)n[nH]c1C(F)(F)F	12.8
Cc1ccc(NCc2ccco2)cc1C.O=C(O)C(=O)O	1.93
CC(=O)c1ccc(NC(=O)c2c(C)nn(-c3ccccc3)c2Cl)cc1	30.3
Cc1ccc(C(=O)NNC(=O)c2ccncc2)cc1C	19.2
COC(=O)c1ccc(N2C(=O)C3CC=CC(C)C3C2=O)cc1 (stereo not drawn)	19.3
CC(=O)c1cc(C(=O)Nc2ccccc2C(=O)O)oc1C	6.28

Reference: publication PMC4336329 (PLoS ONE, 2015)
